{"source": "paper PMC4336329", "about": "(PLoS ONE, 2015)", "note": "Out of some 310,000 compounds screened, about 2,200 (0.71%) showed an effect of 50% or more. Effects have a minus sign here. This is one part of the list."}
{"target": "human ether-à-go-go-related gene (hERG) potassium channel (human, UniProt Q12809)", "sequence (Q12809 whole entry, looked up)": "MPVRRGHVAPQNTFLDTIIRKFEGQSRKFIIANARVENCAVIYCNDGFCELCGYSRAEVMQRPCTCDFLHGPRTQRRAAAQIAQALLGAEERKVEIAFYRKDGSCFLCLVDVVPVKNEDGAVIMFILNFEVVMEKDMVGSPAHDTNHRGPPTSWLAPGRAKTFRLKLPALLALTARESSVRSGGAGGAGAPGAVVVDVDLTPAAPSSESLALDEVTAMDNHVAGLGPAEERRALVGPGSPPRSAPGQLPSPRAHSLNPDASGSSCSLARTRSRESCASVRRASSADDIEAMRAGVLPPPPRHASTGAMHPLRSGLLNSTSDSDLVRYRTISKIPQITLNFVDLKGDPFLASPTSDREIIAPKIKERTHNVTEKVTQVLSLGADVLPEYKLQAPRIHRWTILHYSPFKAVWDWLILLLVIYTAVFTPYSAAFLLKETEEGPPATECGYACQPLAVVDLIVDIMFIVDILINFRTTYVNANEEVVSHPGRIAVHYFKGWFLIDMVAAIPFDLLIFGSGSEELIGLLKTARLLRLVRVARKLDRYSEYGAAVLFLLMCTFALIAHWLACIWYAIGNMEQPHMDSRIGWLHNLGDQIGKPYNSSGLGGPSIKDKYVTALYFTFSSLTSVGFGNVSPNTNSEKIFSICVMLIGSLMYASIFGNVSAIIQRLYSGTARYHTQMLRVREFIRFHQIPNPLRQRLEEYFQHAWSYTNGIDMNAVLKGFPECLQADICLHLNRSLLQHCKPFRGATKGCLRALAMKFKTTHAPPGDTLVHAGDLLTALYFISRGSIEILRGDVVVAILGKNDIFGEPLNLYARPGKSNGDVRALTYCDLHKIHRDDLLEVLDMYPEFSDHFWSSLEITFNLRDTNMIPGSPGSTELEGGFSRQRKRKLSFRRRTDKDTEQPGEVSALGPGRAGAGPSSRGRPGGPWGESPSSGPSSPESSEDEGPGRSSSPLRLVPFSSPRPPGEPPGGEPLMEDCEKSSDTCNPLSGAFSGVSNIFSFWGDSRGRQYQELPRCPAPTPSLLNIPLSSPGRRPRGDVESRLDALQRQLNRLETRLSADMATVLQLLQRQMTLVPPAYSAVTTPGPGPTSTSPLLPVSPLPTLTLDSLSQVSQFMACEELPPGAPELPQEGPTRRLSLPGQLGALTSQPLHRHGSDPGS", "assay": "primary screen, population patch clamp on CHO cells stably expressing hERG", "units": {"hERG current change (%, negative = inhibition) at 1uM": "%"}}
{"smiles": "Cc1c(NC(=O)c2cn3ccccc3n2)cccc1-n1cnnn1", "hERG current change (%, negative = inhibition) at 1uM": 8.18}
{"smiles": "O=C(O)C(=O)O.O=C(c1ccco1)N1CCN(Cc2ccccc2F)CC1", "hERG current change (%, negative = inhibition) at 1uM": 6.83}
{"smiles": "CCN(CC)S(=O)(=O)c1cccc(NC(=O)/C=C/c2cccc([N+](=O)[O-])c2)c1", "hERG current change (%, negative = inhibition) at 1uM": 11.2}
{"smiles": "CC(C)Oc1ccc(C(=O)NC2(C(F)(F)F)N=C3SCCN3C2=O)cc1", "note": "(centres unmarked)", "hERG current change (%, negative = inhibition) at 1uM": 12.8}
{"smiles": "Cc1cc(NC(=O)CSCC(=O)Nc2ccccc2N2CCCCC2)no1", "hERG current change (%, negative = inhibition) at 1uM": -0.0494}
{"smiles": "COc1cc(OC)cc(C(=O)Nc2ccc(S(=O)(=O)Nc3cc(C)on3)cc2)c1", "hERG current change (%, negative = inhibition) at 1uM": 13.9}
{"smiles": "COC(=O)c1sc(S(=O)(=O)NCC(=O)O)c(C(=O)OC)c1C", "hERG current change (%, negative = inhibition) at 1uM": 11.8}
{"smiles": "O=C1CC(C(=O)NC2CCCCC2)C(c2ccccc2)O1", "note": "(centres unmarked)", "hERG current change (%, negative = inhibition) at 1uM": 14.9}
{"smiles": "N#CCCn1cc(C(=O)Nc2ccccn2)c(-c2ccccc2)n1", "hERG current change (%, negative = inhibition) at 1uM": 7.32}
{"smiles": "CCc1nc2ccccc2c(C(=O)NCc2ccccc2)c1C", "hERG current change (%, negative = inhibition) at 1uM": 7.13}
{"smiles": "O=C(NC(=S)Nc1ccc(Br)cc1)C1CCC1", "hERG current change (%, negative = inhibition) at 1uM": -4.01}
{"smiles": "O=C(NCCc1ccccc1)c1ccc(CS(=O)Cc2cccc(Cl)c2)o1", "note": "(centres unmarked)", "hERG current change (%, negative = inhibition) at 1uM": 5.47}
{"smiles": "CC(=O)Nc1ccc(-c2nc3ccccc3c(=O)o2)cc1", "hERG current change (%, negative = inhibition) at 1uM": 17.8}
{"smiles": "CC(C)CNS(=O)(=O)c1ccc(CCC(=O)NCc2ccc(Cl)cc2)cc1", "hERG current change (%, negative = inhibition) at 1uM": 2.67}
{"smiles": "CC(NC(=O)c1cccs1)C(c1cccs1)N1CCN(c2ccccc2)CC1", "note": "(centres unmarked)", "hERG current change (%, negative = inhibition) at 1uM": -4.47}
{"smiles": "CC(CCc1ccccc1)NC(=O)CC(C)c1ccccc1", "note": "(centres unmarked)", "hERG current change (%, negative = inhibition) at 1uM": 12.4}
{"smiles": "Cc1cccc(N(C(=O)CNC(=O)c2ccco2)C(C(=O)NC2CCCCC2)c2cccnc2)c1", "note": "(centres unmarked)", "hERG current change (%, negative = inhibition) at 1uM": 18}
{"smiles": "COC(=O)c1ccc(NC(=O)CCN2CCCCC2)cc1.Cl", "hERG current change (%, negative = inhibition) at 1uM": -51}
{"smiles": "COc1ccc2nc(C)cc(SCC(=O)[O-])c2c1.[Na+]", "hERG current change (%, negative = inhibition) at 1uM": 17}
{"smiles": "Cc1c(Cc2ccccc2)c(=O)oc2cc(OCc3ccc(C(=O)O)cc3)ccc12", "hERG current change (%, negative = inhibition) at 1uM": 11.3}
{"smiles": "COc1ccc(NS(=O)(=O)c2ccc(NC(=S)NC(=O)c3cccnc3)cc2)nn1", "hERG current change (%, negative = inhibition) at 1uM": 10.3}
{"smiles": "Cc1cccc(Nc2ncnc(N)n2)c1", "hERG current change (%, negative = inhibition) at 1uM": 11.5}
{"smiles": "Cn1c(NC(=O)c2ccccc2C(F)(F)F)cc(=O)n(C)c1=O", "hERG current change (%, negative = inhibition) at 1uM": 3.26}
{"smiles": "CC1(C)CC(=O)C(CC(=O)NC2CCCc3ccccc32)C(=O)C1", "note": "(centres unmarked)", "hERG current change (%, negative = inhibition) at 1uM": 14.3}
{"smiles": "CC(=O)Nc1nc(-c2ccccc2)nc(-c2ccccc2OC(C)=O)n1", "hERG current change (%, negative = inhibition) at 1uM": -6.2}
{"smiles": "CC(=O)Nc1cccc(/C(C)=N/NC(=O)c2ccc3c(c2)OCO3)c1", "hERG current change (%, negative = inhibition) at 1uM": 11.6}
{"smiles": "O=C(Nc1ccc(NC(=O)c2ccccc2F)cc1)c1cccs1", "hERG current change (%, negative = inhibition) at 1uM": 25.3}
{"smiles": "CCCCc1ccc(/C=C2\\C(=O)c3ccccc3C(O)=C2C(=O)OCC)cc1", "hERG current change (%, negative = inhibition) at 1uM": 10.4}
{"smiles": "Clc1ccc(SCc2nc3ccccc3[nH]2)cc1", "hERG current change (%, negative = inhibition) at 1uM": 2.53}
{"smiles": "O=C(COc1ccccc1C(=O)O)Nc1ccc(SC(F)F)cc1", "hERG current change (%, negative = inhibition) at 1uM": 11.2}
{"smiles": "CCc1cc[n+](-c2nc3ccccc3nc2C(=C=[N-])C#N)cc1", "hERG current change (%, negative = inhibition) at 1uM": 12.5}
{"smiles": "O=C(CN(CC1CCCO1)C(=O)CNS(=O)(=O)c1ccc(Cl)cc1)NCCc1ccccc1", "note": "(centres unmarked)", "hERG current change (%, negative = inhibition) at 1uM": -10.6}
{"smiles": "Cc1ccc(CNC(=O)c2cc3c(=O)n(C)c4ccccc4c3n2C)cc1", "hERG current change (%, negative = inhibition) at 1uM": 11.6}
{"smiles": "CSc1ccc(/C=C2/C(=N)N3N=C(CC(=O)N4CCCC4)SC3=NC2=O)cc1", "hERG current change (%, negative = inhibition) at 1uM": 21.6}
{"smiles": "Cn1cnnc1SCC(=O)N1N=C(c2ccc(Cl)cc2)CC1c1ccco1", "note": "(centres unmarked)", "hERG current change (%, negative = inhibition) at 1uM": -2.91}
{"smiles": "COc1ccccc1CN(C)C(=O)CN1CCN(S(=O)(=O)c2ccc3c(c2)OCCCO3)CC1", "hERG current change (%, negative = inhibition) at 1uM": 14.6}
{"smiles": "CN(Cc1ccccc1)C(=O)c1ccc2c(c1)OCO2", "hERG current change (%, negative = inhibition) at 1uM": 2.41}
{"smiles": "Cc1cc(NC(=O)CSc2nc(-c3ccccc3)cs2)no1", "hERG current change (%, negative = inhibition) at 1uM": 16.1}
{"smiles": "CCn1c(-c2ccc([N+](=O)[O-])cc2)n[nH]c1=S", "hERG current change (%, negative = inhibition) at 1uM": 11.4}
{"smiles": "CC(C)c1ccc(NC2CCCN(C(=O)c3ccc(Cn4cnnn4)cc3)C2)cc1", "note": "(centres unmarked)", "hERG current change (%, negative = inhibition) at 1uM": 7.77}
{"smiles": "COC(=O)CSc1nnc(-c2ccc(NS(=O)(=O)c3ccccc3)cc2)o1", "hERG current change (%, negative = inhibition) at 1uM": 18.8}
{"smiles": "Cc1ccc(CSCC(=O)N2CCN(c3ccccc3)CC2)cc1", "hERG current change (%, negative = inhibition) at 1uM": -15.4}
{"smiles": "COc1cc(/C(C)=N/N2CCN(c3ccccc3OC)CC2)ccc1O", "hERG current change (%, negative = inhibition) at 1uM": 0.816}
{"smiles": "COC(=O)CN(C(=S)Nc1ccc(F)cc1)C1CC(=O)N(c2ccc(OC)cc2)C1=O", "note": "(centres unmarked)", "hERG current change (%, negative = inhibition) at 1uM": 7.44}
{"smiles": "CN1CCN2c3ccccc3CC3(C(=O)N(C)C(=O)N(C)C3=O)C2C1", "note": "(centres unmarked)", "hERG current change (%, negative = inhibition) at 1uM": 13.5}
{"smiles": "Cc1cc(=O)oc2c1c(C)nn2-c1nn[nH]n1", "hERG current change (%, negative = inhibition) at 1uM": -5.46}
{"smiles": "CC(C)(CO)NS(=O)(=O)c1ccc2c(c1)C(=O)c1cc(S(=O)(=O)NC(C)(C)CO)ccc1-2", "hERG current change (%, negative = inhibition) at 1uM": 5.15}
{"smiles": "COc1cc(C(=O)NNC(=O)CNC(=O)c2ccc(Br)o2)cc(OC)c1OC", "hERG current change (%, negative = inhibition) at 1uM": 14.9}
{"smiles": "CC(OC(=O)/C=C/c1cccc(Cl)c1)C(=O)NC1CCCCC1C", "note": "(centres unmarked)", "hERG current change (%, negative = inhibition) at 1uM": 12.9}
{"smiles": "COc1ccc(N2CCN(C(=O)c3ccc(Cn4c(=S)[nH]c5ccc(N6CCOCC6)cc5c4=O)cc3)CC2)cc1", "hERG current change (%, negative = inhibition) at 1uM": 0.731}
{"smiles": "Cn1cc(S(=O)(=O)N2CCCC2)cc1C(=O)NCc1ccccc1", "hERG current change (%, negative = inhibition) at 1uM": 10.4}
{"smiles": "Nc1cc(=O)n(Cc2ccccc2)c(=O)n1-c1ccc(Cl)cc1", "hERG current change (%, negative = inhibition) at 1uM": 7.86}
{"smiles": "COc1ccc(CC(=O)Oc2ccc(C)cc2Br)cc1S(=O)(=O)N1CCOCC1", "hERG current change (%, negative = inhibition) at 1uM": 20.3}
{"smiles": "O=C(Cc1ccccc1)OCn1nnc2ccccc2c1=O", "hERG current change (%, negative = inhibition) at 1uM": 11.7}
{"smiles": "CC1CN(S(=O)(=O)c2cccc(-c3csc(-c4ccccc4)n3)c2)CC(C)O1", "note": "(centres unmarked)", "hERG current change (%, negative = inhibition) at 1uM": 9.15}
{"smiles": "Cc1oc2cc3oc(=O)c(CC(=O)N[C@@H](C)C(=O)NC(Cc4ccc(Cl)cc4)C(=O)O)c(C)c3cc2c1C", "note": "(some centres unmarked)", "hERG current change (%, negative = inhibition) at 1uM": 11.6}
